Data: the supplement of paper PMC10126150
Sequences with one replicate were seen in a single cluster, so their values are uncertain.

Tested on: ATP
Assay: switch fluorescence ratio, 500 uM ATP over buffer (Cy3 cluster intensity, sum of 5 cycles each) (fold (ratio)); higher = stronger signal-on switching upon ATP binding; sequences stand for … in TCGTCGGCAGCGTCAGATGTGTATAAGAGACAGTTTTTTTTTTTTTTTTTTTTTTTTT…TC
Conditions: aptamer strand: ATP DNA aptamer (quencher-CACCTGGGGGAGTATTGCGGAGGAAGG + anchor), 100 nM annealed; ATP concentration: 500 uM; one replicate
Procedure, shortened: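 Cy3-labelled switching-strand clusters on a modified Illumina MiSeq flow-cell were annealed to 100 nM quencher-labelled ATP aptamer and imaged first in selection buffer, then after 15 min with 500 uM ATP at 22 °C. NaOH stripping and re-annealing separated each of five buffer/ATP cycles, and clusters outside 100-1000 RFU were excluded. The fluorescence ratio sums target-cycle Cy3 intensity over buffer-cycle Cy3 intensity per cluster and averages it per switch-domain sequence.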
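Also: ATP exposure 15 min at 22 °C before imaging.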

Sequence | switch fluorescence ratio
ACGCTACAGG | 1.43
AGTGGTTACG | 1.04
TCTGGAAGCC | 1.03
GGTTGGGGA | 0.999
AGGGCGGCCA | 0.981
TCGAAAGGGT | 1.05
CCAAGGCGTG | 1.02
ATAAATAGGT | 0.984
AAGTCGGCTC | 1.03
CGAACAGACT | 1.02
TGCGAGACTA | 1.11
ACTCAACGCG | 1.07
CATGGAGGTT | 1.03
GAAATGTGGA | 0.999
CTCATATG | 1
GGGTCTCCGA | 1
GGTCGCCTAA | 1.03
CGGCGGCGGC | 0.995
GTGCGGCGTG | 1.06
GCTTCCGTAT | 1.18
TCAGGCGAGT | 0.998
CGAAGTGATA | 1.55
CAACTTAAGG | 0.953
TTCGTAATAA | 2.05
CCTGCATATT | 1.3
CATGAGATTA | 1.02

Sequence | switch fluorescence ratio
CAACTGCTCG | 1.04
CAATAGATG | 0.982
CAGCGAATAT | 1.11
GCAAATTATG | 0.998
ATATTACGCT | 1.03
GTAAGCGATG | 0.989
CCCGGACTTC | 1.05
TATGTAGAAA | 1.02
GATCGAGGCA | 1.05
TCGCCCCCCC | 1.61
ATGTCTACAA | 0.945
CAGTGCCCCT | 1.02
TTCAGCGGTC | 1.07
AAATCACGAT | 1.03
GATTGTTT | 0.972
CTAGAAAACG | 1.06
GTGTGTATCC | 1.01
GTCACGGGCA | 1.06
AGGTCACCGG | 1.03
ATTAATGGGC | 0.999
ACACATTTTG | 1.01
ACTTGGATCC | 1.01
TGCATAAAGG | 1.04
CAGGCAGCGC | 1.04
CGAGATGAGT | 0.949
ATGGTGCAAC | 1.01

Sequence | switch fluorescence ratio
ATGAAGTAGC | 0.97
TAGGTGATGG | 0.983
AAGAATATCG | 1.01
AGTCCGCTCA | 2.01
CGAGGTTC | 0.957
TTACGGAATG | 1.05
GCCGGAATGT | 1.12
CCGGCTTGT | 1.01
CGGTTGGAAG | 0.987
CGAACTTACC | 1.19
TATTCTCGCT | 1.23
AGGACGTTCT | 0.947
TTCATGAGAT | 1.03
AATTGCAATA | 1.32
TTTGGATGCA | 1.06
CCAGGATGCC | 0.979
TTCCCTTCGG | 0.987
ATCCATTGAT | 0.986
AGGCGATTCG | 0.972
CGTGTTTTGG | 0.947
TCCGGTCTGC | 1.07
AAAATAGGAG | 0.996
TGTATCTGGT | 0.985
TGAATCCCGC | 1.03
ATAGCGTCAC | 1.06
CGCAGCGCCG | 0.988

Sequence | switch fluorescence ratio
GGCCCCCCT | 1.08
GCTGACCATT | 1.03
GTATGGTTGA | 0.981
TCGGCGGATG | 1
AAGGGTGACT | 0.974
CGGCTTGATG | 1.02
CGATGTCAGG | 1.07
GTGGTGCCTC | 0.991
CCTGGAGGTA | 0.96
CCCGGGCACC | 1.05
GGACCAATTG | 1.02
TATTTACCTT | 1.09
TATGGGGACT | 1.01
TGGTAGTGC | 0.999
ATCGCAACGG | 1.16
GGCATAAATC | 1.04
GAAAAAACGC | 1.06
TCTGAACATT | 0.995
CAGGTTGAGT | 0.997
TTCTGTAGCT | 1.9
TGGAAATGGA | 0.987
AAAGTCGGGG | 0.98
AGACCCACAG | 1.04
TAACGAGCTT | 1.04
CTCTACAGGC | 1.27
CAGTTTTCAA | 0.966

Sequence | switch fluorescence ratio
ACCTTATCCC | 1.22
CGAGAAGTGC | 1.15
TTCTGGAAAG | 1.03
TAGATGCAAA | 1.01
TACGAGATGG | 1.01
GCTGGCCACG | 1.03
GGGGGCAAGG | 0.977
CCCGGCGGCT | 1.07
AAGGGATTTC | 1.01
GTTACTAGGG | 1.01
TAAGTTCCGA | 1.06
GGATTTTTAC | 1.01
GAGGTGTGC | 0.999
GCGCTTGTTT | 1.06
GTCGTAAGCG | 0.902
GTGTGTGTTT | 1.01
GTAGTGTTCC | 1.08
GATTTTATTC | 0.994
TCTCTAACGA | 1.02
CAATTATATT | 0.969
ACGTCGGC | 1.03
CCTGATAACA | 0.974
TCAACGGGG | 0.992
GATGGTTTGC | 0.991
CACGGAGACA | 1.12
GTTGGCGACA | 0.993

Sequence | switch fluorescence ratio
CTCGCCTAAA | 1.04
GACACTTTGA | 1.01
ACCTTAAGCT | 1.06
AGCTGATTGG | 1.01
ACCCGTGAAG | 1.01
CAATGGTTA | 0.973
TAAAAAAGGG | 0.954
GGTGAAGAAT | 0.999
GTGTGACGTT | 0.941
TTAGGAGGAA | 0.972
ATAAGTTAT | 0.983
TTTCCGCTT | 1.05
TTCGGACCTG | 1.05
AGGGTGTTGT | 0.99
GCTTTTTGAT | 0.949
ACAGGCGTTG | 0.967
TTTAGTCAC | 1.02
GGCTCTAATT | 1.02
CAGCGTGTGG | 0.984
AGTGGTAGAG | 0.968
GACCGCCATC | 2.7
CATGATGTAG | 1.04
CCGTGGGGGC | 1.28
